# Where “and” joins values, the source holds several entries; their conditions need not be identical. Equal values may be shown once. ± gives the uncertainty stated by the source. Whole data set: some 9,900 compounds, median “viability index relative to DMSO control” near 1, cut for the lowest 2% near 0.85. This is one part of the list.
# Tested on: Plasmodium falciparum NF54 stage V gametocytes
# Assay: viability index relative to DMSO control (fraction); higher = less gametocyte killing
# Settings: 2.5 µM, incubation time: 72 h
# How it was run: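 Viability index is the count of red-stained particles in a well divided by the plate mean of solvent-only wells. Particles of 20–70 µm2 were counted in one imaged field per well after one to two hours with 3 µl of 2.5 µM MitoTracker Red CMXRos and 0.13% saponin. Before staining, P. falciparum NF54 stage V gametocytes in serum-free medium (0.75% gametocytemia, 1.25% hematocrit, 10 µl, 1,536-well plates) were kept with compound at 2.5 µM for 72 hr at 37°C under low oxygen.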
# [1] = library set: Broad Institute DOS
# [2] = library set: Broad Institute Blood Stage
SMILES,viability index [1],viability index [2]
C[C@H](CO)N1C[C@H](C)[C@@H](CN(C)S(=O)(=O)c2cccs2)Oc2ccc(NC(=O)CCCCCC(=O)Nc3ccccc3N)cc2CC1=O,1.038 ± 0.0059,
CCS(=O)(=O)N1C[C@@]2(C1)CN([C@@H](CO)c1c2c2ccc(OC)cc2n1C)S(=O)(=O)c1ccccc1,1.04 ± 0.1,
Cc1noc(C)c1C(=O)N(C)C[C@@H]1OCc2ccccc2-c2ccccc2C(=O)N([C@H](C)CO)C[C@@H]1C,0.938 ± 0.24,
Cc1noc(C)c1NC(=O)N1C[C@H](O)COC[C@H]2O[C@H](CC(=O)N3CCc4ccccc4C3)CC[C@@H]21,1.01 ± 0.11,
CCCNC(=O)c1cc2c(c(-c3cccc(-c4cc5ccccc5o4)c3)n1)[C@@H](CCO)N(C(=O)NC(C)C)C2,0.926 ± 0.08,
COC(=O)C[C@@H]1CC[C@H]2[C@@H](COC[C@H](O)CN2S(=O)(=O)c2cn(C)cn2)O1,1.05 ± 0.047,
c1cc(-c2ccc([C@H]3[C@H]4CNC[C@@H]3N4Cc3nccs3)cc2)ccn1,1.06 ± 0.059,
C[C@@H]1CCCCO[C@H](CN(C)S(=O)(=O)c2cn(C)cn2)[C@@H](C)CN([C@H](C)CO)C(=O)c2cc(NC(=O)Nc3cccc4ccccc34)ccc2O1,1.16 ± 0.045,
CO[C@H](CN(C)S(=O)(=O)c1cccc(Cl)c1)[C@@H](C)CN(C(=O)Nc1ccccc1F)[C@@H](C)CO,1.08 ± 0.019,
C[C@H](NC(=O)C[C@@H]1CC[C@H]2[C@@H](COc3ccc(NC(=O)C4CCOCC4)cc3C(=O)N2C)O1)c1ccccc1,1.19 ± 0.17,
N#Cc1ccc(-c2ccc([C@@H]3[C@@H](CO)N4C(=O)CNC[C@@H]34)cc2)cc1,1.01 ± 0.11,
NCC[C@H]1CC[C@H](NS(=O)(=O)c2ccc(Cl)cc2)[C@H](CO)O1,0.803 and 1.11,
Cc1noc(C)c1S(=O)(=O)N(C)C[C@@H]1OCc2ccccc2-c2c(n(C)c3ccccc23)C(=O)N([C@H](C)CO)C[C@@H]1C,0.953 ± 0.036,
COCCNC(=O)C[C@H]1C[C@H]2c3cc(NC(=O)CN(C)C)ccc3O[C@H]2[C@@H](CO)O1,1.09 ± 0.04,
O=C(NCc1ccc(F)cc1)[C@@H]1[C@@H](CO)[C@@H]2Cn3c(cccc3=O)[C@@H]2N1C(=O)c1cccnc1,1.05 ± 0.044,
C[C@H](CO)N1C[C@H](C)[C@@H](CN(C)C(=O)NC2CCCCC2)Oc2c(NC(=O)c3cnccn3)cccc2C1=O,1.09 ± 0.059,
Cc1noc(C)c1S(=O)(=O)N(C)C[C@H]1OCc2ccccc2-c2c(n(C)c3ccccc23)C(=O)N([C@H](C)CO)C[C@@H]1C,0.935 ± 0.045,
C[C@H]1CN([C@@H](C)CO)C(=O)Cc2cc(NS(=O)(=O)c3ccc(Cl)cc3)ccc2O[C@@H]1CN(C)C(=O)Nc1ccc(C(F)(F)F)cc1,1.01 ± 0.025,
CCCNC(=O)N1[C@H](C#N)[C@H](c2ccccc2-c2ccccc2F)[C@@H]1CO,1.04 ± 0.072,
C[C@H](NC(=O)[C@H]1[C@H](CO)[C@H]2Cn3c(cccc3=O)[C@H]2N1CCC(F)(F)F)c1ccccc1,1.05 ± 0.058,
N#C[C@@H]1[C@H](c2ccccc2-c2cccc(F)c2)[C@H](CO)N1C(=O)C1CC1,1.15 ± 0.046,
OC[C@H]1[C@@H](c2ccccc2)C2(CN(Cc3nccs3)C2)N1CC1CCOCC1,1.02 ± 0.02,
C[C@H](CO)N1C[C@H](C)[C@@H](CN(C)C(=O)[C@H](Cc2ccccc2)N(C)C)OCc2ccccc2-c2c(n(C)c3ccccc23)C1=O,0.994 ± 0.068,

SMILES,viability index [1],viability index [2]
CN1C(=O)c2cc(NS(=O)(=O)c3cccc(F)c3)ccc2OC[C@@H]2O[C@@H](CC(=O)NCCN3CCCCC3)CC[C@@H]21,0.913 ± 0.13,
CO[C@@H]1CN(C)C(=O)c2cc(NC(=O)CC(F)(F)F)ccc2OC[C@H](C)N(CC2CC2)C[C@@H]1C,1.008 ± 0.01,
C[C@@H]1CN([C@@H](C)CO)C(=O)CCCn2nncc2CO[C@H]1CN(C)C(=O)CCC(F)(F)F,1.01 ± 0.036,
C[C@H](CO)N1C[C@H](C)[C@H](CN(C)Cc2ccc3c(c2)OCO3)OCCCC[C@H](C)Oc2ccc(NS(=O)(=O)c3cn(C)cn3)cc2C1=O,1.08 ± 0.0099,
COc1ccc(-c2ccccc2[C@H]2[C@@H](C#N)N(C(=O)C3CCC3)[C@H]2CO)cc1,1.09 ± 0.088,
CCCNC(=O)N1C[C@@]2(C1)CN([C@H](CO)c1[nH]c3cc(OC)ccc3c21)C(=O)NC1CCCC1,0.9276 ± 0.0024,
COc1ccc2c3c([C@H](CO)N(Cc4ccc5OCOc5c4)C[C@]33CN(C3)C(=O)c3ccc4OCOc4c3)n(C)c2c1,,0.435 ± 0.088
COCC(=O)N(C[C@H]1[C@H](c2ccccc2)[C@H](CO)N1C(=O)NC(C)C)C(C)C,0.929 ± 0.011,
O=C(C1CCOCC1)N1CC(=O)N2[C@H](CO)[C@@H](c3ccc(C#CC4CCCCC4)cc3)[C@H]2C1,1.1 ± 0.067,
COc1ccc2c3c([C@@H](CO)N(C[C@]33CCN(CC3)C(=O)CN(C)C)C(=O)C3CC3)n(C)c2c1,0.9448 ± 0.0058,
CS(=O)(=O)N1[C@@H]2Cn3c(cccc3=O)[C@H]1[C@@H](C(=O)NCc1ccc(F)cc1)[C@@H]2CO,1.03 ± 0.051,
COc1cccc(C(=O)Nc2ccc3c(c2)C(=O)N(C)[C@H]2CC[C@H](CC(=O)Nc4ccc5c(c4)CCCC5)O[C@@H]2CO3)c1,0.92 ± 0.09,
CN1CCN(C(=O)C[C@@H]2CC[C@H]3[C@@H](COC[C@@H](O)CN3Cc3cccc(-c4ccncc4)c3)O2)CC1,1.1 ± 0.056,
C[C@@H]1CCCCO[C@H](CN(C)C(=O)NC2CCCCC2)[C@H](C)CN([C@H](C)CO)C(=O)c2cc(N(C)C)ccc2O1,1.02 ± 0.032,
C/C=C/c1cnc2c(c1)C(=O)N([C@H](C)CO)C[C@@H](C)[C@@H](CN(C)CC1CCOCC1)O2,1.05 ± 0.016,
CO[C@@H](CN(C)C(=O)c1ccccc1F)[C@H](C)CN([C@@H](C)CO)S(=O)(=O)c1ccc(F)cc1,1.01 ± 0.023,
C[C@H]1CN([C@@H](C)CO)C(=O)Cc2cc(NS(=O)(=O)c3cn(C)cn3)ccc2O[C@H]1CN(C)Cc1ccc2c(c1)OCO2,1.06 ± 0.05,
O=C(C[C@H]1C=C[C@H](NS(=O)(=O)c2ccc(F)cc2)[C@@H](CO)O1)N1CCc2ccccc2C1,0.95 ± 0.057,
COc1ccc2c3c([C@H](CO)N(CC4CC4)C[C@]33CCN(CC3)S(=O)(=O)c3cccs3)n(C)c2c1,0.965 ± 0.02,
C[C@@H]1CN([C@@H](C)CO)C(=O)c2cc(/C=C/c3ccccc3)cnc2O[C@@H]1CN(C)S(=O)(=O)c1ccccc1F,1.02 ± 0.059,
CS(=O)(=O)N1CC(=O)N2[C@H](CO)[C@@H](c3ccc(C#CCC4CCCC4)cc3)[C@@H]2C1,0.933 ± 0.074,
O=C1N[C@@H](c2ccccc2)COCc2cnnn2CC[C@H]1Cc1ccc(C(F)(F)F)cc1,1.04 ± 0.026,
CCC(=O)N1C[C@H](C)[C@@H](OC)CN(C)C(=O)c2ccc(NC(=O)CC(F)(F)F)cc2OC[C@@H]1C,1.07 ± 0.068,

SMILES,viability index [1],viability index [2]
O=C(C[C@@H]1CC[C@@H]2[C@H](COC[C@H](O)CN2C(=O)Nc2cccc(F)c2)O1)NCCCN1CCOCC1,1.07 ± 0.014,
NCC[C@@H]1CC[C@@H](NS(=O)(=O)c2ccc(Cl)cc2)[C@@H](CO)O1,1.02 and 1.13,
CO[C@H]1CN(C)C(=O)c2cc(NC(=O)Cc3ccccc3)ccc2OC[C@@H](C)N(C(=O)c2ccccc2F)C[C@@H]1C,1.05 ± 0.11,
C[C@@H]1CCCCO[C@H](CN(C)C(=O)c2ccncc2)[C@H](C)CN([C@@H](C)CO)C(=O)c2cc(NC(=O)CCC(F)(F)F)ccc2O1,1 ± 0.054,
CO[C@@H](CN(C)C(=O)C1CCOCC1)[C@H](C)CN([C@@H](C)CO)S(=O)(=O)c1ccccc1,1.06 ± 0.074,
CCC(=O)N[C@H]1CC[C@@H](CC(=O)NCc2ccccc2F)O[C@H]1CO,1.17 ± 0.02,
COCc1cn(CC[C@H]2CC[C@H](NC(=O)Nc3c(C)noc3C)[C@@H](CO)O2)nn1,0.927 ± 0.067,
O=C(C[C@@H]1CC[C@@H]2[C@H](COC[C@@H](O)CN2CC2CCOCC2)O1)NCc1ccc(Cl)cc1,1.08 ± 0.075,
Cc1ccccc1-c1ccccc1[C@@H]1[C@@H](C#N)N(C(=O)c2ccc(F)cc2)[C@H]1CO,1.15 ± 0.051,
CC(=O)N1[C@H](C(=O)NCc2ccccc2Cl)[C@@H](CO)[C@@H]2Cn3c(ccc(-c4cncnc4)c3=O)[C@@H]21,1.04 ± 0.058,
O=C(C[C@@H]1CC[C@H]2[C@@H](COC[C@@H](O)CN2C(=O)c2ccc(F)cc2)O1)N1CCCCC1,1.07 ± 0.046,
COCC#Cc1ccc([C@H]2[C@H](CO)N3C(=O)CN(C(=O)Nc4ccccc4F)C[C@@H]23)cc1,1.029 ± 0.0064,
CO[C@@H]1CN(C)C(=O)c2cc(NS(C)(=O)=O)ccc2OC[C@H](C)N(C(=O)C2CCOCC2)C[C@@H]1C,1.03 ± 0.049,
CC(C)(C)S(=O)N1Cc2cc(C(=O)O)nc(-c3cccc(-c4cc5ccccc5o4)c3)c2[C@@H]1CCO (some centres undefined),1.03 ± 0.023,
C[C@H](CO)N1C[C@H](C)[C@@H](CN(C)Cc2cccc(C(F)(F)F)c2)OCc2ccccc2-c2c(n(C)c3ccccc23)C1=O,0.878 ± 0.081,
C[C@H]1CN([C@@H](C)CO)C(=O)Cc2cc(NC(=O)Cn3cnnn3)ccc2O[C@@H]1CN(C)S(=O)(=O)c1ccc(Cl)cc1,1.09 ± 0.066,
COc1ccc(C(=O)N2C[C@H]3[C@@H](c4ccccc42)[C@@H](CO)N3C(=O)NC(C)C)cc1,1.05 ± 0.045,
C[C@H](CO)N1C[C@H](C)[C@H](CN(C)Cc2ccc3c(c2)OCCN3C)OCc2cnnn2CCCC1=O,1.04 ± 0.043,
CCC(=O)N1[C@H](CO)[C@@H](c2ccc(/C=C/c3ccccc3)cc2)C12CN(S(C)(=O)=O)C2,1.06 ± 0.025,
COC(=O)C[C@H]1C[C@@H]2c3cc(NC(=O)C4CCOCC4)ccc3O[C@@H]2[C@H](CO)O1,1.128 ± 0.0042,
CCCNC[C@H]1[C@@H](c2ccc(C3=CCCCC3)cc2)[C@@H](CO)N1C(=O)C1CCC1,0.977 ± 0.036,
COc1ccc(S(=O)(=O)Nc2ccc3c(c2)C(=O)N([C@@H](C)CO)C[C@H](C)[C@@H](CN(C)S(=O)(=O)c2ccc(Cl)cc2)OCCCC[C@@H](C)O3)cc1,0.927 ± 0.078,
C[C@H](CO)N1C[C@H](C)[C@@H](CN(C)C(=O)C2CCCCC2)Oc2ncc(/C=C/c3ccccc3)cc2C1=O,,0.735 ± 0.028

# Reference: the supplement of paper PMC4723716
